Some of the results follow.

This assay has as its system PF3D7_0420300 AP2 domain 1 (GST-tagged). The assay is described as follows: gcPBM binding intensity (ln(normalized median fluorescence intensity)); higher = stronger DNA binding. A digest of the protocol:
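Alexa488 anti-GST antibody, scanned at 488 nm, detected GST-tagged P. falciparum DNA-binding domains that had been expressed in E. coli and incubated for 1 h on an Agilent 4 × 180k array. The array carried primer-extended double-stranded 36-bp intergenic genomic probes and negative controls. Binding intensity is the highest Masliner-normalised natural-log median intensity across replicate spots of either orientation of each probe.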
Consider “GGAATAACCAGACACACACACACATATATATATATA [CACACA_site3541]”, for which the “gcPBM binding intensity (ln)” value is 10.1.
For “AAAAACCATTCGCACACACACATAATCTATAATATA [CACACA_site6782]” the value was 10.
For “AAGTACCATATAGGCACACATATATATATATATATA [CACACA_site3282]” the value was 9.22; for “AATACATTGTCAAATTGTACAAATTATAGAACTATT [XGTACX_site2222]”, 9.19; for “TGTTTTTATATATATGCACACAATGTACAAGTATAC [CACACA_site3529]”, 9.46.
For “CCATAAAAAGGATACACACACACACCCACATATATA [CACACA_site903]” the value was 10.2; for “TTATATATAAACATAAAAAGAAATATATTATGTATA [CACACA_negctrl_site667]”, 9.08; for “TATGTGAATATAATCACACACAATACGGAAACCCAC [CACACA_site2725]”, 9.77.
As for “AAAGTCTCATTAAAATGTACAAAATTTTCAGCTGTA [XGTACX_site6296]”, the “gcPBM binding intensity (ln)” value was 8.9.
In the case of “TAATTTTTAATTGTAGCATGCAGTATTTTTAAATAT [TGCATGCA_site140]” it was 8.97.
In the case of “ATTATCCATGCATTTACACACACACCCAAAAAAATT [CACACA_site4101]” it was 9.99.
In the case of “AAAGGGGCATATATATGTACATATTATATATTTTGA [XGTACX_site2436]” it was 9.18; in that of “ATTGTCTTCTCATATACACACTTTTATGACTATCTT [CACACA_site5696]”, 9.64; in that of “TGTGTAATTATATATAAGGAGAAAGAATTCATTTTT [CACACA_negctrl_site670]”, 9.12.
For “ACAAAAAATAATCAAAATGTATATATATAATATAAT [XGTACX_negctrl_site593]”, the “gcPBM binding intensity (ln)” value came to 9.27.
In the case of “TATTGAAGTTATAAAGTGCAGATAAATATGAGTTAT [GTGCAC_site9945]” it was 9.52.
In the case of “AAATGCCATATAATTTTTCTTAAACATAATTGTATA [CACACA_negctrl_site1665]” it was 9.07.
In the case of “ATATTTAATGTTAATTGTACATATTATATATATATA [XGTACX_site6095]” it was 9.23; in that of “ATAATATTATTATAATGTACATATTTCGATATAAAT [XGTACX_site8808]”, 9.13; in that of “GATTATACAAAATATACACACGTGTAGACAAATATT [CACACA_site4785]”, 9.71.
Consider “ATATATATTAATAGGTGTACATATAAAGTGTTATGT [XGTACX_site5464]”, for which the “gcPBM binding intensity (ln)” value worked out at 9.51.
Take “AAAAAAATATATATTACACACATATATACCTATATA [CACACA_site5688]”: the “gcPBM binding intensity (ln)” value stood at 9.56.
For “AAAAAAAAATTTTTAAAATTTAGAAAATTTAAAAAA [GTGCAC_negctrl_site649]” the value was 8.63.
For “TAATAATGCAACCTCTGTACACAACATTATATCCAT [XGTACX_site7596]” the value was 9.41; for “TATATATAAGCGTGTACACATTCTGAGTGTTGTATA [CACACA_site4502]”, 9.34; for “ATTATTTTTTTATGTTGTACATAATATTTTTTAAAA [XGTACX_site1666]”, 9.06.
For “ATATATATGGATGGACGTACGTATGTATGTAATTTC [XGTACX_site4135]” the value was 9.44.
Turning to “TAATATTTATAAAATAGTACACAGAAAAAGCATTTT [XGTACX_site8948]”, the “gcPBM binding intensity (ln)” value is 9.23.
In the case of “TTCCAACATTGTTTTTGTACATAATTAACTGTTATT [XGTACX_site5224]” it was 9.43.
In the case of “CTTAAAAATAACTGCACACAAAAATAAATACCTTAT [CACACA_site2793]” it was 9.55.
As to “GAAAAAATATATAAATGTACATATAATAATATCATA [XGTACX_site6788]”, the “gcPBM binding intensity (ln)” value was 9.3.
In the case of “ATATATATTTTATTATGTACATATAAATATTACACA [XGTACX_site4062]” it was 9.12.
For “AACAAATAAACAAAATTGGAAAATAAAAATATCAAA [CACACA_negctrl_site1125]” the value was 9.37; for “TCGTATATGGATTTTGCACACAATTTTAATTTAAAT [CACACA_site4635]”, 9.5; for “ATGATTTGTCTGAAATGTACATATATATATATATAT [XGTACX_site5247]”, 9.18.
For “TTTTTTTTTTTTTTAATTAATTACCTTTGAATGTGT [CACACA_negctrl_site393]” the value was 9; for TAATAATTTTATAAAGTGCATAAAAATAAAAATTTT, 9.01; for “AAAAAAGAATAGCACACACACATATATAAATATAAA [CACACA_site4518]”, 9.92.
Regarding “TTTTTTTTTTTTTGTGCATGTAGATTTATTGTTATA [TGCATGCA_site582]”, the “gcPBM binding intensity (ln)” value came out at 9.32.
For “TTTAAATATATATTTAGTACTTATTCTTAAAATTTT [XGTACX_site624]” the value was 9.02.
In the case of “GTAGAGGATTAAGAATGTACACATAAATACATATTT [XGTACX_site8874]” it was 9.2; in that of “AATTATACATACATATATATATTTATATATATATAT [GTGCAC_negctrl_site462]”, 9.18; in that of “GTTACATACAGATACACACACATATATATATATATA [CACACA_site4652]”, 9.81.
For “AAAAAAAAATATATATAAAATTAAAAAATGTAATAT [GTGCAC_negctrl_site581]”, the “gcPBM binding intensity (ln)” value was found to be 9.37.
